# “And” between values parts separate entries of the source, which are not always exact repeats. Identical values can stand only once. Some of the results follow. The main result of the screen is listed elsewhere. These columns were measured beside it and carry no call.
# Legend:
# Assay in all cases: Primary Screen for Target Class Profiling of Small Molecule Inhibitors of Methyltransferases
# [1] = target: Glycine N-methyltransferase (Homo sapiens) (UniProt Q14749); conditions: purified enzyme, MTase-Glo SAH luminescence; measured here: GNMT inhibition; at 40 µM; stronger effect = lower value
# In short: (§1)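 Each enzyme was reacted with SAM and its substrate, with compounds tested once at 40 uM; SAH formed was read by MTase-Glo luminescence.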
# [2] = target: Guanidinoacetate N-methyltransferase (Homo sapiens) (UniProt Q14353); conditions: purified enzyme, MTase-Glo SAH luminescence; measured here: GAMT inhibition; at 40 µM; stronger effect = lower value
# In short: as §1
# [3] = target: Histamine N-methyltransferase (Homo sapiens) (UniProt P50135); conditions: purified enzyme, MTase-Glo SAH luminescence; measured here: HNMT inhibition; at 40 µM; stronger effect = lower value
# In short: as §1
# [4] = target: Nicotinamide N-methyltransferase (Homo sapiens) (UniProt P40261); conditions: purified enzyme, MTase-Glo SAH luminescence; measured here: NNMT inhibition; at 40 µM; stronger effect = lower value
# In short: as §1
# [5] = target: Phenylethanolamine N-methyltransferase (Homo sapiens) (UniProt P11086); conditions: purified enzyme, MTase-Glo SAH luminescence; measured here: PNMT inhibition; at 40 µM; stronger effect = lower value
# In short: as §1
# % is scaled to controls: 0 for no effect and ±100 for the full control effect.
SMILES,"activity change, negative = inhibition [1]","activity change, negative = inhibition [2] [%]","activity change, negative = inhibition [3]","activity change, negative = inhibition [4]","activity change, negative = inhibition [5]"
Cc1nnsc1C(=O)N[C@H]1CCN(C(=O)c2ccco2)[C@H](C(=O)N[C@H](Cc2c[nH]c3ccccc23)C(N)=O)C1,-0.836%,-0.378,2.47%,-0.537%,1.87%
Cc1ccccc1CN1CC(=O)N(Cc2cccc(F)c2)c2ccccc2S1(=O)=O,-4.16%,-2.06,-5.45%,-7%,-8.24%
CN1C(=O)c2cc(C(=O)NCCN3CCOCC3)nn2CC1(C)C(=O)NCc1ccc(F)cc1 (stereo not given),5.64%,2.61,0.709%,2.49%,0.485%
Cc1cc2[nH]c(=O)[nH]c2cc1S(=O)(=O)NCc1ccc2c(c1)OCO2,4.22%,0,1.23%,-0.715%,-2.05%
CC1(C(=O)NC2CCCC2)Cn2c(ccc2-c2ccccc2)C(=O)N1Cc1ccco1 (stereo not given),0.378%,4.56,4.64%,-0.927%,-0.202%
O=C(CCCc1nnc2n3nc(-c4ccccc4)nc3c3ccccc3n12)NCc1ccccc1Cl,-3.29%,3.58,10.1%,12.8%,0.784%
CC1CCC(NC(=O)CCn2ccc3cc(S(=O)(=O)N4CCC(C)CC4)ccc32)CC1 (stereo not given),2.35%,5.3,-1.92%,-6.96%,-3.05%
CCCn1c(=O)c2ccc(C(=O)NC(C)CC)cc2n2c(=O)n(CC(=O)c3cccc(Cl)c3)nc12 (stereo not given),5.29%,0.624,10.3%,3.67%,7.68%
CCn1c(=O)n(CC)c2cc(S(=O)(=O)Nc3ccc(F)c(F)c3)ccc21,11.1%,1.9,11.9%,-1.67%,5.31%
CC1(C(=O)NC2CCCC2)Cn2c(ccc2-c2ccccc2)C(=O)N1Cc1cccc(F)c1 (stereo not given),0.94%,4.76,-1.65%,1.16%,1.76%
C[C@@H]1O[C@@H](O[C@H]2[C@@H]3C=CO[C@@H](O[C@@H]4O[C@H](CO)[C@@H](O)[C@H](O)[C@H]4O)[C@@H]3[C@@]3(CO)O[C@@H]23)[C@H](O)[C@H](OC(=O)/C=C/c2ccc(O)c(O)c2)[C@H]1O,3.51%,-4.23,3.19%,-13.7%,1.84%
COc1cccc(CC(=O)N[C@@H]2CN(c3ncccn3)C[C@H]2CO)c1,-4.13%,-6.31,-4.02%,-8.75%,-9.16%
Cc1ccc(C(=O)Nc2ccc(CN3CCN(C)CC3)c(C(F)(F)F)c2)cc1C#Cc1cnc2[nH]ncc2c1,-6.4%,10.3,-12.5%,-7.23%,-6.91%
CCCC1c2cccn2CCN1C(=O)Nc1ccc(OC)cc1 (stereo not given),-7.37%,5.54,-31%,-8.45%,-1.42%
CS(=O)(=O)N1C[C@H]2CCN(C(=O)c3cc(F)ccc3F)C[C@H]21,-2.96%,-2.83,-0.247%,-4.05%,-2.94%
COc1cc(CNCc2ccccc2C)ccc1OCC(O)CN1CCC(O)CC1 (stereo not given),-2.48%,1.03,-15.8%,-3.12%,2.75%
COc1ccccc1N1C(=O)c2cc3ccccc3n2CC1(C)C(=O)NC1CCCCC1 (stereo not given),-2.11%,0,7.64%,9.69%,2.77%
Oc1ccc(-c2nc(-c3ccc(F)cc3)c(-c3ccncc3)[nH]2)cc1,-19.9% and -23.1%,-0.29,-12.3% and -4.57%,-21.9% and -7.78%,-13% and 25.7%

# Source: PubChem BioAssay AID1745853 (National Center for Advancing Translational Sciences (NCATS), 2022)
